From PubChem BioAssay AID2546 (National Center for Advancing Translational Sciences (NCATS), 2010)
The campaign covered roughly 310,000 compounds. About 11,000 (3.5%) were called active. The inconclusive results got no clear call from the source; some entries with a clear call stand among them for comparison. Calls follow the shape of the dose curve; as a rule, active = well fitted inhibition curve with a large enough effect; inconclusive = small, poorly fitted or top-dose-only effect, or effect the other way; inactive = flat fitted curve, though single readings scatter. Potencies of inconclusive entries are left out as doubtful fits.

Test: VP16 counterscreen qHTS for inhibitors of ROR gamma transcriptional activity;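 also: Gal4-VP16 expression switched on by copper sulfate through the metallothionein promoter; nearly all actives have a fitted effect of over 50% in size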
Conditions: Drosophila S2 Gal4-VP16 UAS-luciferase, luminescence, 20 h; series mostly up to 53.6 µM
Potency is read from the fitted curve at half-maximal effect; tags tell the direction and shape of the fitted curve.

Which Potency does the source give for `Cc1cc(Cl)ccc1OCC(=O)NC(=S)Nc1ccccc1N1CCOCC1` here?
The Potency was inconclusive [inhibitor, full curve].

For `CCOC(=O)N1CCC(N(CCN(C)C)C(=S)Nc2cc(Cl)cc(Cl)c2)CC1`, which Potency is on record?
Its Potency is inconclusive [inhibitor, single point].

With `COc1ccc(Cl)cc1NC(=O)C/C(C)=N/NC(=O)c1ccc(O)cc1` as the compound, how does the Potency read?
Its Potency is inconclusive [inhibitor, partial curve].

For `COc1ccccc1N=C1SCC(=O)N1Cc1ccco1`, which Potency is on record?
The Potency was “inactive”.

For `CCc1ccc(OCC(=O)NC(NC(=S)Nc2ccccc2OC)C(Cl)(Cl)Cl)cc1` (centres undefined), which Potency is on record?
Its Potency is inconclusive [inhibitor, single point].

For `Cc1ccc(S(=O)(=O)N2CCCNCC2)cc1`, which Potency is on record?
The Potency was “inactive”.

With `CN1C(=O)N(C)C2=NNC=NC2(O)C1=O` (centres undefined) as the compound, how does the Potency read?
Its Potency is inconclusive [inhibitor, partial curve, poor fit].

For `c1csc(-c2nc3c4ccccc4c4ccccc4c3[nH]2)c1`, which Potency is on record?
Its Potency is inconclusive [inhibitor, single point].

With `CN(C)c1ccc(C(=C2C=CC(=[N+](C)C)C=C2)c2c(O)c(S(=O)(=O)[O-])cc3cc(S(=O)(=O)O)ccc23)cc1` as the compound, how does the Potency read?
The Potency was active: 8.91 µM.

For `COc1cc(C(=O)NCCOc2cc(C)ccc2C(C)C)cc(OC)c1OC`, which Potency is on record?
The Potency was inconclusive [inhibitor, single point].

For `CCOC(=O)COn1c(-n2nc(C)cc2C)nc2ccccc2c1=O`, which Potency is on record?
The Potency was active: 14.1 µM.

Which Potency does the source give for `O=C(N/N=C/c1cc(Br)c(O)c(Br)c1)c1cc2c(ccc3ccccc32)o1` here?
Its Potency is inconclusive [inhibitor, single point].

For `O=C(CN1C(=O)CSC1=O)Nc1ccc(F)c(F)c1F`, which Potency is on record?
Its Potency is “inactive”.

For `CCOc1ccc(-c2cc(CCCC(=O)Nc3cccc(OC)c3)no2)cc1`, which Potency is on record?
The Potency was inconclusive [inhibitor, full curve].

For `COC(=O)/C=C1/S/C(=N/NC(=O)c2ccc(OC)cc2)NC1=O`, which Potency is on record?
Its Potency is inconclusive [inhibitor, single point].

For `NC(=O)CC(NC(=O)Cc1ccc(Br)cc1)c1ccc(NCCc2ccc(F)cc2)c([N+](=O)[O-])c1` (centres undefined), which Potency is on record?
Its Potency is “inactive”.

For `CCOc1ccccc1Nc1ncccc1C(=O)N1CCCC1`, which Potency is on record?
Its Potency is inconclusive [inhibitor, partial curve, poor fit].

With `COCc1c(C(=O)Nc2nc(C)cs2)oc2ccccc12` as the compound, how does the Potency read?
Its Potency is inconclusive [activator, partial curve].

With `Cc1cc(C)c(S(=O)(=O)N2CCCCC2)c(C)c1N(C)S(=O)(=O)c1ccccc1` as the compound, how does the Potency read?
Its Potency is “inactive”.
